The whole screen tested about 310,000 compounds, of which about 14,000 (4.5%) showed an effect of 50% or more. Effects have a minus sign here. This is one part of the list.
Target: human ether-à-go-go-related gene (hERG) potassium channel (human, UniProt Q12809)
Experiment: primary screen, population patch clamp on CHO cells stably expressing hERG
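Also: peak tail current of the secondary pulse compared with the same well before compound.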

Sequence of human ether-à-go-go-related gene (hERG) potassium channel (Q12809 whole entry, looked up): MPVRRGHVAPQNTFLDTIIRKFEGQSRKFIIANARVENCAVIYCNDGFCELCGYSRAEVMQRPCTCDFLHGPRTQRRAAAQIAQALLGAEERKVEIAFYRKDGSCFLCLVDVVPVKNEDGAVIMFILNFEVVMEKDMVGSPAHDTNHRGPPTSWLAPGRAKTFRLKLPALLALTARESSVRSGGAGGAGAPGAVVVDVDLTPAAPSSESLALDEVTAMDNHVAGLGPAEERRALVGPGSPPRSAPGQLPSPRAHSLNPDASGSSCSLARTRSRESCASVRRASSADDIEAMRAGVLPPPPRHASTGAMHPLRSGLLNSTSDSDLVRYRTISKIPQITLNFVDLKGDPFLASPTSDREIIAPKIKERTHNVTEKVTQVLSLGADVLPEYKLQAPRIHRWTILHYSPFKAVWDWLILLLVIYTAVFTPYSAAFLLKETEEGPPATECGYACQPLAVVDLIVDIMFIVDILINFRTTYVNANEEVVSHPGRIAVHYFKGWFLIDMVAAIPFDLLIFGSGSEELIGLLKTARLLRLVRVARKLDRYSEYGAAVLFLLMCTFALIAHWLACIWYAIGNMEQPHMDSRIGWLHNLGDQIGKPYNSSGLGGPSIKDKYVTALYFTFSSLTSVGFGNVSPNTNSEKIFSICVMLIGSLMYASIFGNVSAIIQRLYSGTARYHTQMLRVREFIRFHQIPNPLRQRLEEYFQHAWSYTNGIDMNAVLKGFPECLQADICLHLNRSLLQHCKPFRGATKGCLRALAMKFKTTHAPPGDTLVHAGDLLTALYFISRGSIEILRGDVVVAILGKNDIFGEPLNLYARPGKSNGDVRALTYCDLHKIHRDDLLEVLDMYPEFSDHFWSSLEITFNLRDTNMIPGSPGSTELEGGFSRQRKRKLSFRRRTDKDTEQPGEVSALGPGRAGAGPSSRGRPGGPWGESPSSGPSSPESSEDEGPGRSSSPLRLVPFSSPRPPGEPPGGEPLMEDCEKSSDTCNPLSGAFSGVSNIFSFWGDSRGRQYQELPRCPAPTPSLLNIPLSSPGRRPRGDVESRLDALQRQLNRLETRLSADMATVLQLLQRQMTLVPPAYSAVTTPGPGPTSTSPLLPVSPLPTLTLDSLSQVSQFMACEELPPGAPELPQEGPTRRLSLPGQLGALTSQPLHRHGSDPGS

| SMILES | hERG current change (%, negative = inhibition) at 10uM |
| --- | --- |
| CCc1ccc(OCC(=O)N(C)CCC#N)c(Br)c1 | -4.95% |
| O=C(O)CCCCCNC(=O)C(=O)C1C(=O)Nc2ccccc21 (stereo not drawn) | 15% |
| CCOc1ccc(CCNC(=O)COC(=O)Cc2ccc(F)cc2)cc1OCC | -26.6% |
| Cc1cccc(OCCc2c(C)[nH]c(=S)[nH]c2=O)c1 | 12.8% |
| COc1ccc(/C=C2\SC(=S)N(NS(=O)(=O)c3ccc(C)cc3)C2=O)c(OC)c1 | -24.6% |
| Cc1ccc(C)c(-c2[nH]ncc2CN2CCCC(CO)(Cc3ccccc3C)C2)c1 (stereo not drawn) | -47.8% |
| Cc1ccc(C(=O)NNC(=O)CSc2nnc(-c3ccncc3)n2C)cc1 | 24.9% |
| NC(=O)CSc1c[nH]c2ccccc12 | -6.82% |
| CCN(CC)S(=O)(=O)c1ccc(/C=C/C(=O)OCC(=O)Nc2cccnc2Cl)cc1 | -34.1% |
| CCOC(=O)C(=O)Nc1ccccc1C(=O)OC | 10.7% |
| CC(C)C(=O)N1CCN(c2ccccc2NC(=S)NC(=O)Cc2ccccc2)CC1 | -4.92% |
| Cc1sc2nc(SCC(=O)N3CCCCC3)[nH]c(=O)c2c1C | 1.97% |
| NC(=O)CN1CCN(C(=O)Nc2ccccc2)CC1 | -6.24% |
| Cc1ccccc1-n1nc(SCC(=O)O)sc1=S | 23.5% |
| CCN(CC(=O)Nc1c(F)cccc1F)C(=O)Cc1n[nH]c(=O)c2ccccc12 | 16.1% |
| CC(=O)Nc1ccc(C#Cc2ccc(NC(C)=O)cc2)cc1 | 8.37% |
| CC(=O)N1CC(=O)Nc2ccc(C)cc2C1c1ccccc1 (stereo not drawn) | 14.7% |
| N#Cc1c(N)nc2c(c1-c1ccncc1)CCCCCC2 | -1.86% |
| Cc1nc2ccccn2c(=O)c1NC(=O)c1cccc2ccccc12 | -6.3% |
| CCN1C(=O)C(C)S/C1=N\S(=O)(=O)c1ccc(F)cc1 (stereo not drawn) | -5.64% |
| Cc1ccc2c(c1)N(CC(=O)NCCCN1CCCC1)C(=O)CO2 | 14.5% |
| CC1(C)C(=O)OC(c2c(F)c(F)c(F)c(F)c2F)C2(CCCCC2)C1=O (stereo not drawn) | 11.2% |
| CCc1nc(SCC(=O)Nc2cccc3ccccc23)[nH]c(=O)c1C | 8.16% |

| SMILES | hERG current change (%, negative = inhibition) at 10uM |
| --- | --- |
| CC1CCC(NC(=O)CCS(=O)(=O)c2ccc3c(c2)NC(=O)CS3)CC1 (stereo not drawn) | -5.69% |
| CCOC(=O)c1cnc(-n2nc(C)cc2C)nc1NC1CCCCC1 | -9.72% |
| COc1ccccc1Nc1ncnc2c1c(C)c(C)n2CCO | 12.3% |
| COc1cc(NC(=O)c2cccs2)c(C(=O)OCC(=O)NC(C)c2ccccc2)cc1OC (stereo not drawn) | 6.62% |
| CN(CCCNC(=O)COc1cc(=O)n(C)c2ccccc12)Cc1ccccc1 | -18.1% |
| Cc1cc(C(=O)CSc2nc(N)cc(=O)[nH]2)c(C)n1CCc1ccc(Cl)cc1 | 21.4% |
| Cc1ccc2c(c1)N(C(=O)CCC(=O)N1CCN(c3ccccn3)CC1)CC(C)O2 (stereo not drawn) | -46.1% |
| CCCN(C(=O)c1cc(S(=O)(=O)N2CCCCC2)ccc1Cl)C1CCS(=O)(=O)C1 (stereo not drawn) | -8.22% |
| CCC(CO)(C(=O)OC1CC2CCC(C1)N2C)c1ccccc1.Cl (stereo not drawn) | 12.3% |
| ClCC1=Nc2ccccc2Cc2ccccc21 | 9.65% |
| COc1ccc(N2CCN(C(=O)COC(=O)CNC(=O)c3ccc(Cl)cc3Cl)CC2)cc1 | -44.7% |
| COc1ccccc1N1CCN(C2CCCCC2NS(=O)(=O)c2ccccc2)CC1 (stereo not drawn) | 4.09% |
| COc1cccc(C2CC(c3ccccc3)Nc3ncnn32)c1 (stereo not drawn) | -9.55% |
| CCCOc1cccc(C2C(C(=O)c3ccc(C)o3)=C(O)C(=O)N2CCN2CCOCC2)c1 (stereo not drawn) | 10.5% |
| Cc1ccc(C(C[N+](=O)[O-])n2nc(C)cc2C)cc1 (stereo not drawn) | 11.8% |
| O=[N+]([O-])c1cc(C=Nc2cccc3c(O)cccc23)ccc1Cl | 29.2% |
| Cc1ccc(C(=O)n2nc(-c3ccccc3)nc2NCc2ccco2)cc1 | 16% |
| COc1ccc(NC(=O)CCC(=O)NCc2ccco2)c([N+](=O)[O-])c1 | -0.71% |
| Clc1ccc(-c2ccc(C=Nc3ccc(N4CCOCC4)cc3)o2)cc1 | -6.9% |
| O=C(Nc1nccs1)C1CC=CCC1C(=O)OCC(F)(F)C(F)F (stereo not drawn) | 20.6% |
| O=C(CC1NCCN(Cc2ccccc2)C1=O)Nc1ccccc1 (stereo not drawn) | -13.8% |
| CCCNC(=O)C1(O)c2cc(Br)ccc2NC(=O)N1c1ccc(Cl)cc1 (stereo not drawn) | 11% |

— article PMC4336329 (PLoS ONE, 2015)
